Assay results reported in the supplement of paper PMC4967469.

Experiments:
Assay in all cases: Viability of human cancer cell lines after 72 h of drug (GDSC screen)
[1] = compound: CC[C@]1(O)C[C@@H]2CN(CCc3c([nH]c4ccccc34)[C@@](C(=O)OC)(c3cc4c(cc3OC)N(C)[C@H]3[C@@](O)(C(=O)OC)[C@H](OC(C)=O)[C@]5(CC)C=CCN6CC[C@]43[C@@H]65)C2)C1 [Vinblastine]; settings: top dose 0.1 µM; top dose inferred
Protocol: (§1)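 Human cancer cell lines in 384-well plates, medium with 10% serum, drug for 72 h over a 256-fold dose range (nine 2-fold or five 4-fold steps up to the top dose). Adherent lines were fixed and stained with the nucleic acid dye Syto60, suspension lines read with resazurin; signal relative to control wells, capped at 0 and 100%. One two-parameter sigmoid per drug and line, fitted in a mixed model over all curves with the slope shared within a line.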

[2] = compound: CN(C)C/C=C/C(=O)Nc1cc2c(Nc3ccc(F)c(Cl)c3)ncnc2cc1O[C@H]1CCOC1 [Afatinib]
Protocol: as §1

[3] = compound: CN(c1ncccc1CNc1nc(Nc2ccc3c(c2)CC(=O)N3)ncc1C(F)(F)F)S(C)(=O)=O [PF-562271]; settings: top dose 2.56 µM; top dose inferred
Protocol: as §1

[4] = compound: O=C(NC1CC1)c1cccc(-c2ccc3c(NC(=O)C4CC4)n[nH]c3c2)c1 [XMD13-2]; settings: top dose 10.24 µM; top dose inferred
Protocol: as §1

[5] = compound: CC1(C)CC(=O)c2c(C(F)(F)F)nn(-c3ccc(C(N)=O)c(N[C@H]4CC[C@H](O)CC4)c3)c2C1 [SNX-2112]; settings: top dose 2.56 µM
Protocol: as §1

[6] = top dose 0.5 µM, screen: GDSC drug entry 1032
[7] = top dose 10 µM, screen: GDSC drug entry 1377, top dose inferred

LB831-BLC (bladder, adherent)
AUC [1]: 0.683
IC50 [1]: 20.4 nM
AUC [2, 6]: 0.987
IC50 [2, 6]: > 500 nM
AUC [2, 7]: 0.966
IC50 [2, 7]: > 10000 nM
AUC [3]: 0.826
IC50 [3]: 1590 nM
AUC [4]: 0.951
IC50 [4]: > 10200 nM

LCLC-97TM1 (large cell lung carcinoma, adherent)
AUC [5]: 0.369
IC50 [5]: 66.9 nM
AUC [1]: 0.47
IC50 [1]: 5.13 nM
AUC [3]: 0.867
IC50 [3]: > 2560 nM
AUC [4]: 0.75
IC50 [4]: 3620 nM

NB17 (neuroblastoma, adherent)
AUC [5]: 0.787
IC50 [5]: 1300 nM
AUC [1]: 0.675
IC50 [1]: 20.8 nM
AUC [2, 6]: 0.984
IC50 [2, 6]: > 500 nM
AUC [2, 7]: 0.982
IC50 [2, 7]: > 10000 nM
AUC [3]: 0.922
IC50 [3]: > 2560 nM

NCI-H1963 (small cell lung carcinoma, suspension)
AUC [5]: 0.959
IC50 [5]: > 2560 nM
AUC [1]: 0.649
IC50 [1]: 15.3 nM
AUC [2, 6]: 0.991
IC50 [2, 6]: > 500 nM
AUC [3]: 0.928
IC50 [3]: > 2560 nM

RCC-JF (kidney, adherent)
AUC [5]: 0.345
IC50 [5]: 55.9 nM
AUC [1]: 0.548
IC50 [1]: 8.59 nM
AUC [2, 6]: 0.681
IC50 [2, 6]: 107 nM
AUC [2, 7]: 0.828
IC50 [2, 7]: 7240 nM
AUC [4]: 0.955
IC50 [4]: > 10200 nM

RCC-JW (kidney, adherent)
AUC [5]: 0.888
IC50 [5]: > 2560 nM
AUC [1]: 0.531
IC50 [1]: 7.62 nM
AUC [2, 6]: 0.951
IC50 [2, 6]: > 500 nM
AUC [2, 7]: 0.903
IC50 [2, 7]: > 10000 nM
AUC [4]: 0.898
IC50 [4]: > 10200 nM

RCC-MF (kidney, adherent)
AUC [5]: 0.719
IC50 [5]: 813 nM
AUC [1]: 0.659
IC50 [1]: 19.7 nM
AUC [2, 6]: 0.879
IC50 [2, 6]: > 500 nM
AUC [2, 7]: 0.763
IC50 [2, 7]: 4640 nM
AUC [4]: 0.825
IC50 [4]: 8700 nM

SBC-5 (small cell lung carcinoma, adherent)
AUC [5]: 0.803
IC50 [5]: 1000 nM
AUC [1]: 0.535
IC50 [1]: 7.66 nM
AUC [2, 6]: 0.993
IC50 [2, 6]: > 500 nM
AUC [2, 7]: 0.993
IC50 [2, 7]: > 10000 nM
AUC [4]: 0.976
IC50 [4]: > 10200 nM

SCC90 (head and neck, adherent)
AUC [1]: 0.66
IC50 [1]: 21.1 nM
AUC [2, 6]: 0.724
IC50 [2, 6]: 180 nM
AUC [2, 7]: 0.725
IC50 [2, 7]: 3620 nM
AUC [3]: 0.834
IC50 [3]: > 2560 nM

SK-GT-4 (oesophagus, adherent)
AUC [5]: 0.635
IC50 [5]: 415 nM
AUC [1]: 0.511
IC50 [1]: 6.73 nM
AUC [2, 6]: 0.911
IC50 [2, 6]: > 500 nM
AUC [2, 7]: 0.884
IC50 [2, 7]: > 10000 nM
AUC [4]: 0.917
IC50 [4]: > 10200 nM

SK-MEL-5 (melanoma, adherent)
AUC [5]: 0.983
IC50 [5]: > 2560 nM
AUC [1]: 0.47
IC50 [1]: 5.09 nM
AUC [2, 6]: 0.977
IC50 [2, 6]: > 500 nM
AUC [2, 7]: 0.938
IC50 [2, 7]: > 10000 nM
AUC [4]: 0.964
IC50 [4]: > 10200 nM

SK-MG-1 (glioma, adherent)
AUC [5]: 0.429
IC50 [5]: 102 nM
AUC [1]: 0.432
IC50 [1]: 4.06 nM
AUC [2, 6]: 0.979
IC50 [2, 6]: > 500 nM
AUC [2, 7]: 0.97
IC50 [2, 7]: > 10000 nM
AUC [4]: 0.984
IC50 [4]: > 10200 nM

SNU-61 (large intestine, adherent)
AUC [5]: 0.503
IC50 [5]: 163 nM
AUC [1]: 0.889
IC50 [1]: > 100 nM
AUC [2, 6]: 0.96
IC50 [2, 6]: > 500 nM
AUC [2, 7]: 0.951
IC50 [2, 7]: > 10000 nM
AUC [4]: 0.899
IC50 [4]: > 10200 nM

SNU-81 (large intestine, adherent)
AUC [5]: 0.953
IC50 [5]: > 2560 nM
AUC [1]: 0.816
IC50 [1]: 81 nM
AUC [2, 6]: 0.981
IC50 [2, 6]: > 500 nM
AUC [2, 7]: 0.977
IC50 [2, 7]: > 10000 nM
AUC [4]: 0.913
IC50 [4]: > 10200 nM

SNU-407 (large intestine, adherent)
AUC [5]: 0.513
IC50 [5]: 175 nM
AUC [1]: 0.719
IC50 [1]: 29.4 nM
AUC [2, 6]: 0.967
IC50 [2, 6]: > 500 nM
AUC [2, 7]: 0.946
IC50 [2, 7]: > 10000 nM
AUC [4]: 0.903
IC50 [4]: > 10200 nM

SNU-C5 (large intestine, adherent)
AUC [5]: 0.695
IC50 [5]: 601 nM
AUC [1]: 0.643
IC50 [1]: 16.3 nM
AUC [2, 6]: 0.951
IC50 [2, 6]: > 500 nM
AUC [2, 7]: 0.962
IC50 [2, 7]: > 10000 nM
AUC [4]: 0.972
IC50 [4]: > 10200 nM

STS-0421 (soft tissue, adherent)
AUC [1]: 0.572
IC50 [1]: 10.2 nM
AUC [2, 6]: 0.978
IC50 [2, 6]: > 500 nM
AUC [2, 7]: 0.963
IC50 [2, 7]: > 10000 nM
AUC [3]: 0.81
IC50 [3]: 1630 nM

SW1271 (small cell lung carcinoma, adherent)
AUC [5]: 0.52
IC50 [5]: 183 nM
AUC [1]: 0.703
IC50 [1]: 25.7 nM
AUC [2, 6]: 0.984
IC50 [2, 6]: > 500 nM
AUC [2, 7]: 0.982
IC50 [2, 7]: > 10000 nM
AUC [4]: 0.944
IC50 [4]: > 10200 nM

TE-4 (oesophagus, adherent)
AUC [5]: 0.95
IC50 [5]: > 2560 nM
AUC [1]: 0.367
IC50 [1]: 2.69 nM
AUC [2, 6]: 0.257
IC50 [2, 6]: 6.32 nM
AUC [2, 7]: 0.065
IC50 [2, 7]: < 39.1 nM
AUC [4]: 0.97
IC50 [4]: > 10200 nM

TK10 (kidney, adherent)
AUC [1]: 0.748
IC50 [1]: 38 nM
AUC [2, 6]: 0.717
IC50 [2, 6]: 148 nM
AUC [2, 7]: 0.473
IC50 [2, 7]: 520 nM
AUC [3]: 0.906
IC50 [3]: > 2560 nM
AUC [4]: 0.935
IC50 [4]: > 10200 nM

TK (B-cell lymphoma, suspension)
AUC [1]: 0.678
IC50 [1]: 18.7 nM
AUC [2, 6]: 0.989
IC50 [2, 6]: > 500 nM
AUC [2, 7]: 0.978
IC50 [2, 7]: > 10000 nM
AUC [3]: 0.976
IC50 [3]: > 2560 nM
AUC [4]: 0.887
IC50 [4]: 9710 nM

TMK-1 (stomach, adherent)
AUC [5]: 0.893
IC50 [5]: > 2560 nM
AUC [1]: 0.438
IC50 [1]: 4.18 nM
AUC [2, 6]: 0.908
IC50 [2, 6]: > 500 nM
AUC [2, 7]: 0.935
IC50 [2, 7]: > 10000 nM
AUC [4]: 0.974
IC50 [4]: > 10200 nM

UWB1.289 (ovary, adherent)
AUC [5]: 0.979
IC50 [5]: > 2560 nM
AUC [1]: 0.789
IC50 [1]: 71 nM
AUC [2, 6]: 0.837
IC50 [2, 6]: > 500 nM
AUC [2, 7]: 0.777
IC50 [2, 7]: 6280 nM
AUC [4]: 0.941
IC50 [4]: > 10200 nM

YH-13 (glioma, adherent)
AUC [5]: 0.561
IC50 [5]: 238 nM
AUC [1]: 0.438
IC50 [1]: 4.19 nM
AUC [2, 6]: 0.986
IC50 [2, 6]: > 500 nM
AUC [2, 7]: 0.904
IC50 [2, 7]: > 10000 nM
AUC [4]: 0.941
IC50 [4]: > 10200 nM

huH-1 (liver, adherent)
AUC [5]: 0.973
IC50 [5]: > 2560 nM
AUC [1]: 0.752
IC50 [1]: 40.4 nM
AUC [2, 6]: 0.974
IC50 [2, 6]: > 500 nM
AUC [2, 7]: 0.982
IC50 [2, 7]: > 10000 nM
AUC [4]: 0.984
IC50 [4]: > 10200 nM

A lower IC50 marks a more sensitive line; a fit beyond the top or the lowest dose is shown as a bound at that dose. AUC sums up the same curve from the lowest dose to the 256-fold higher top dose; it is 1 without any effect and falls as sensitivity rises. For some assays here: Where the top dose is marked as inferred, it is not printed in the source and was worked back from the curve model. For some assays here: Drugs with an entry number were screened twice under separate entries, and the two screens often disagree.
